Data published in article PMC4336329 (PLoS ONE, 2015).
Out of some 310,000 compounds screened, about 2,200 (0.71%) showed an effect of 50% or more. The effect is printed as a negative number. The list shows a part of the results.

The compounds below were run against human ether-à-go-go-related gene (hERG) potassium channel (human, UniProt Q12809) (assay: primary screen, population patch clamp on CHO cells stably expressing hERG).
human ether-à-go-go-related gene (hERG) potassium channel, sequence (Q12809 whole entry, looked up): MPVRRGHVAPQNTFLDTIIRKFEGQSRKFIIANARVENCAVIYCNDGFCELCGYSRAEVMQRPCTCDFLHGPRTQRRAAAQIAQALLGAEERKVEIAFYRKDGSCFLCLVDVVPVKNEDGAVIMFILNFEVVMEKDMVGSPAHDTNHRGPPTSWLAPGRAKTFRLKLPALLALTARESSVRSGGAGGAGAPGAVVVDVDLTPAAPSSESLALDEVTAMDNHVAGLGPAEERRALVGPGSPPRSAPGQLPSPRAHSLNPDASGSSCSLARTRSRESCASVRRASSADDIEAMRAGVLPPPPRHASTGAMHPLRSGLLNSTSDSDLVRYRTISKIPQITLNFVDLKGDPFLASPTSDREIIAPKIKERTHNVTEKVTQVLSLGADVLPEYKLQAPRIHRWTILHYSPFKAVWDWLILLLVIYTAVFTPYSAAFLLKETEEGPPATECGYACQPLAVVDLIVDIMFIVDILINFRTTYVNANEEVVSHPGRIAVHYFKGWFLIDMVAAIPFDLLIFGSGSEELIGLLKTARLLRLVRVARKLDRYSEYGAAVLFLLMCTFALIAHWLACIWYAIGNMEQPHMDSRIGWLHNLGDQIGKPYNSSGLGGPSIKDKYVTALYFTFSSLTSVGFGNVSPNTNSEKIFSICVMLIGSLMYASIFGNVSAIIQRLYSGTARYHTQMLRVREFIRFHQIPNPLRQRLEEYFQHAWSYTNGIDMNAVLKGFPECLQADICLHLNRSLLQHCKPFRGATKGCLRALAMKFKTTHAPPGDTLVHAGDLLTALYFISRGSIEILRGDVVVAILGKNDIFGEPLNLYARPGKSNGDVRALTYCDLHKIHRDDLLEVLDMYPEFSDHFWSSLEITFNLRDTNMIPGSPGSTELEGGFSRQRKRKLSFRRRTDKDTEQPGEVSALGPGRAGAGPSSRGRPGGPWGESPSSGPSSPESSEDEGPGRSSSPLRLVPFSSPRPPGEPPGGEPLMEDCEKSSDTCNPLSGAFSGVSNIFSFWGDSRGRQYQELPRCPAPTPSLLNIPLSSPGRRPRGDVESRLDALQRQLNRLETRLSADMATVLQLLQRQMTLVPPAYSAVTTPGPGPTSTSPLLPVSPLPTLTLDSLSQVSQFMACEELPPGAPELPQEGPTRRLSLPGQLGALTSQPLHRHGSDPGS

Structure (SMILES) | hERG current change (%, negative = inhibition) at 1uM
O=C1CCC(C(=O)N2CCCC(N3CCN(c4cccc(C(F)(F)F)c4)CC3)C2)=NN1 (stereo not shown) | -2.4%
COc1ccc(-c2cccc([C@H]3[C@@H]4C=CCC[C@@]4(C)C(=O)N3Cc3ccccc3)c2)cc1 | 14.6%
Cc1ccc(OS(=O)(=O)c2ccc(N3C(=O)CCC3=O)cc2)cc1 | 18.9%
Cl.O=c1[nH]cnc2c1N1CCC2CC1 | 7.71%
O=C(OCC(=O)N1CCCCCC1)c1cccs1 | 23.7%
COc1ccccc1C(=O)NCCC(=O)Nc1ncccc1C | 17.9%
N#CC(C(=O)c1ccccc1)=C1SCCS1 | 12.6%
O=C(Cn1nc(C(F)(F)F)c2c1CCC2)NCc1ccc(Cl)cc1 | 13.1%
CCOC(=O)Cc1csc(NC(=O)c2cccnc2)n1 | -0.104%
CCOC(=O)C(=O)Nc1nc(-c2ccccc2)c(CC)s1 | 5.64%
O=C(c1ccc2c(c1)OCCO2)C1CCN(C(=O)Nc2ccccc2F)CC1 | 15.9%
O=C1CCc2cc(S(=O)(=O)N3CCN(c4ccccc4F)CC3)ccc2N1 | -4.41%
Cc1nn(CC(=O)OCC(=O)Nc2ccccc2[N+](=O)[O-])c(C)c1[N+](=O)[O-] | 7.87%
Cc1ccc(N(C(=O)c2snc(C(N)=O)c2N)C(C(=O)NC2CCCC2)c2ccc(C)o2)cc1 (stereo not shown) | 19.2%
O=C(CSc1nc2ccccc2s1)Nc1ccc(Cl)c(S(=O)(=O)N2CCOCC2)c1 | 8.31%
Cc1cc(C(=O)COC(=O)c2ccc(O)cc2O)c(C)n1-c1ccccc1 | 6.26%
CCCCOc1ccc(C2/C(=C(/O)c3ccc4c(c3)CC(C)O4)C(=O)C(=O)N2CCCN2CCOCC2)cc1OC (stereo not shown) | 13.7%
Cc1cc(O)cc2c1O[C@@](C)(CCC[C@@H](C)CCC[C@@H](C)CCCC(C)C)CC2 | 2.78%
CCCCC(=O)Nc1cccc(-c2cn3ccccc3n2)c1 | 5.7%
O=C(NCC1CCCO1)c1ccc(S(=O)(=O)Nc2ccccc2F)cc1 (stereo not shown) | 7.53%
COc1ccc(OC)c(N(CC(N)=O)S(=O)(=O)c2ccc(OC)c(OC)c2)c1 | 3.68%
CCOC(=O)N1CCN(C(=O)c2cn(CC)c3ccc(S(=O)(=O)N4CCC(C)CC4)cc3c2=O)CC1 | 8.03%

Structure (SMILES) | hERG current change (%, negative = inhibition) at 1uM
O=S(=O)(Nc1cccc(-n2cnnn2)c1)c1cc(Br)ccc1Br | 10.3%
Cc1nnc(SCC(=O)N2CCN(S(=O)(=O)c3ccccc3)CC2)n1Cc1ccccc1 | 11.2%
Cn1c(CN2CCCC2)nc2cc(NS(=O)(=O)c3ccc(Cl)cc3)ccc21 | -31%
Cc1ccc(-c2cc([C@H]3[C@H]4C=CC[C@@H](C)[C@@H]4C(=O)N3Cc3ccccc3)ccc2F)cc1 | 13.3%
COc1ccc(S(=O)(=O)N/N=C\c2ccc(OC)c(COc3ccc(C)cc3[N+](=O)[O-])c2)cc1 | 7.57%
CC(=O)Nc1ccc(NC(=O)c2sc(-c3ccccc3)nc2C)cc1 | 14%
CCOC(=O)c1cnc2c(C(=O)OC)cccc2c1NCc1cccnc1 | -55.5%
O=C(Nc1ccc(-c2csnn2)cc1)C(Cl)(Cl)Cl | 11%
CC(=O)NCCc1ccc(S(=O)(=O)Nc2ccc(NC(=O)c3ccc(F)cc3)cc2)cc1 | 11.5%
COc1cc(NC(=O)CSCc2ccccc2)c(C(=O)O)cc1OC | 11.7%
Cc1ccc2[nH]c(=O)c(CN(Cc3ccccc3Cl)C(=O)N3CCOCC3)cc2c1 | -23.5%
O=C1CC(N2CCC(O)(c3ccc(Cl)cc3)CC2)C(=O)N1Cc1ccc(N2CCCC2=O)cc1 (stereo not shown) | 6.35%
Cc1ccc(C(=O)N/N=C\c2cccnc2)s1 | 12.2%
O=C1c2cc(O)cc(O)c2C(=O)c2c1cc(O)c([C@@H](CO)CCO)c2O | 23%
O=C(CN(C(=O)CNS(=O)(=O)c1ccc(F)cc1)c1cccc(F)c1)NCC1CCCO1 (stereo not shown) | 16.3%
CNCCC(=O)N1c2ccccc2CCc2ccc(NC(=O)OC)cc21.Cl | 17.9%
O=C(CSc1ncccn1)Nc1cccc2ccccc12 | 10.1%
COc1ccccc1CCNC(=O)C(=O)NCCC1CCCCN1S(=O)(=O)c1cccs1 (stereo not shown) | 7.24%
O=C1NC(=O)C2(Cc3cc([N+](=O)[O-])ccc3N3CCN(C(=O)c4ccccc4)CC32)C(=O)N1 (stereo not shown) | 12%
COc1ccc(C(=O)NCC(=O)NCC2(N(C)C)CCCCC2)cc1OC | 14.2%
Cc1cccc(NC(=O)c2cc(-c3cc(C)c(C)cc3O)n[nH]2)c1 | 14.9%
CC(=O)Nc1ccc(NC(=O)C(C)OC(=O)c2ccccc2NS(=O)(=O)c2cccs2)cc1 (stereo not shown) | 5.11%

Structure (SMILES) | hERG current change (%, negative = inhibition) at 1uM
CCOc1ccccc1C1c2[nH]c3ccccc3c2C[C@H]2C(=O)N(C3CCN(Cc4ccccc4)CC3)CC(=O)N12 (stereo partly shown) | 6.74%
COc1ccccc1OCCOCCN1CCCC1 | 13.2%
CC(C)NC(=O)c1ccc(N2CCOCC2)nc1 | 14.7%
COC(=O)c1ccc2c(=O)n(NC(=O)C(c3ccccc3)c3ccccc3)c(=S)[nH]c2c1 | -9.45%
CCN(CC)C(=O)Cn1cc(S(=O)(=O)CC(=O)Nc2ccc(C(N)=O)cc2)c2ccccc21 | 28.8%
S=c1[nH]ccn1-c1ccc(Cl)cc1 | 14.5%
C/C(=C\c1ccco1)CN1CCN(Cc2ccc(C)o2)C(CCO)C1 (stereo not shown) | 7.81%
CC(=O)N1CCCc2ccccc21 | 16.7%
O=C(/C=C/c1ccc(O)cc1)c1ccccc1 | 7.98%
CC1(C)c2[nH]c3ccccc3c2C[C@@H]2C(=O)N(Cc3ccccc3Cl)C(=O)N21 | 15.7%
Cc1ccc(S(=O)(=O)NC(=O)N2CCN(Cc3c(F)cccc3Cl)CC2)cc1 | 19.2%
CC(C)(C)NC(=O)C(c1ccc(Cl)cc1)N(Cc1ccco1)C(=O)CCl (stereo not shown) | 6.64%
NC(=O)c1ccc(N2CCCCC2)c(N2C(=O)C3C4C=CC(C4)C3C2=O)c1 (stereo not shown) | 6.68%
C=C(C)C(=O)N1CC2(CC(c3cccc(NC(=O)c4ccccc4)c3)=NO2)C[C@@H]1C(N)=O (stereo partly shown) | 6.2%
CCN(CC)C(=O)c1sc(N2C(=O)Nc3ccccc3N2O)c(C(=O)OC)c1C | 2.68%
CC12CCC(C(=O)NCc3ccccc3Cl)(CC1=O)C2(C)C (stereo not shown) | 12.4%
CCOC(=O)c1cc(-c2ccccc2)n(CC(=O)O)c1C | 3.85%
COc1ccc(C(=O)C[n+]2ccc3c(c2)nc(-c2cc(OC)c(OC)cc2OC)n3C)cc1.[Br-] | 4.74%
COc1cc(OC)nc(NC(=O)CSc2nc3ccccc3[nH]2)n1 | 11.4%
COc1cccc(NC(=O)CN(C)C(=O)C(CCSC)NC(=O)c2ccco2)c1 (stereo not shown) | 15.1%
O=C(COc1ccccc1)NCC(=O)NC1=NCCS1 | 16.1%
COc1ccc(CNC(=O)Nc2cc(C)ccc2C)cc1 | 13.2%

Structure (SMILES) | hERG current change (%, negative = inhibition) at 1uM
CCCCCOCC1CC(C/C(C)=N/NC(N)=S)C(=O)O1 (stereo not shown) | -5.31%
CC(C)c1onc(C(=O)NC2CCCC2)c1[N+](=O)[O-] | 13.4%
CCCc1cc(Nc2ccc(C)cc2)n2ncnc2n1 | 8.04%
CC1=C(C(=O)OCCOc2ccccc2)C(c2coc3ccccc3c2=O)C2=C(CCCC2=O)N1 (stereo not shown) | -4.82%
CC(NC(=O)Nc1nccs1)(C(F)(F)F)C(F)(F)F | 4.39%
CC(=O)NC1=NN(C(C)=O)C(C)(c2cccc([N+](=O)[O-])c2)S1 (stereo not shown) | 8.83%
CN(C)c1ccc(/C=C2\C(=N)N3N=C(CC(=O)N4CCCCC4)SC3=NC2=O)cc1 | 11.5%
COC(=O)C1=C(C(=O)OC)[C@@H]2N(C)c3ccccc3[C@@]23C[C@@H](C(=O)OC)N(C(=O)CC(C)C)C3=N1 | 14.4%
COc1ccc(C(=O)NCCSc2ccccn2)cc1 | 9.08%
CC(=O)Oc1ccc(C(=O)Nc2cc(NC(=O)c3ccc(OC(C)=O)cc3)cc(C(=O)NC(C)(C)C)c2)cc1 | 7.64%
Brc1ccc2ncnc(NCc3cccnc3)c2c1 | 4.06%
O=C(CC(C(=O)O)c1ccc(F)cc1)c1ccc(Cl)cc1 (stereo not shown) | 14.2%
COc1ccc(NC2CCCN(C(=O)c3c(C)noc3C)C2)cc1 (stereo not shown) | 6.08%
Cc1c(C(=O)C(=O)NCCCn2ccnc2)c2ccccc2n1C | -5.07%
Cc1cc(C)nc([N-]S(=O)(=O)c2ccc(N)cc2)n1.[Na+] | 1.51%
Cc1ccc(N(CC(=O)NCc2ccc3c(c2)OCO3)C(=O)c2csnn2)cc1 | 8.63%
CCCCNc1nc(-c2ccccc2)c(C(=O)OCC)cc1C#N | 3.64%
CCc1cc2ccc(OC)cc2nc1SCC(=O)NNC(=O)c1ccco1 | 9.99%
COC(=O)C1=C(N)Oc2cc(C)[nH]c(=O)c2C1c1cc(OC)c(OC)c(OC)c1 (stereo not shown) | 4.65%
